Data published in patent US20170274014A1, “COMBINATIONS OF LOW, IMMUNE ENHANCING, DOSES OF MTOR INHIBITORS AND CARS” (Novartis AG, priority 2014, published 2017).

Assay: Questionnaires on energy and exercise ability one year after dosing
Conditions: 0.5 mg daily dosing cohort

CO[C@H]1C[C@@H]2CC[C@@H](C)[C@@](O)(O2)C(=O)C(=O)N2CCCC[C@H]2C(=O)O[C@H]([C@H](C)C[C@@H]2CC[C@@H](OCCO)[C@H](OC)C2)CC(=O)[C@H](C)/C=C(\C)[C@@H](O)[C@@H](OC)C(=O)[C@H](C)C[C@H](C)/C=C/C=C/C=C/1C [RAD001, (1R,9S,12S,15R,16E,18R,19R,21R,23S,24E,26E,28E,30S,32S,35R)-1,18-dihydroxy-12-{(1R)-2-[(1S,3R,4R)-4-(2-hydroxyethoxy)-3-methoxycyclohexyl]-1-methylethyl}-19,30-dimethoxy-15,17,21,23,29,35-hexamethyl-11,36-dioxa-4-aza-tricyclo[30.3.1.04,9]hexatriaconta-16,24,26,28-tetraene-2,3,10,14,20-pentaone]
Self-reported energy and exercise ability as compared to placebo: increased energy and exercise ability
